In the supplement of paper PMC4604168 (melanoma cell lines):
Some of the results follow. Most values come without repeats; read them as rough.

How the values were obtained:
Test in all cases: cell count relative to DMSO control; melanoma cells; higher = more viable cells
Conditions in all cases: library dose: standard library concentration; 72 h
G361 = tested on: G361
IPC-298 = tested on: IPC-298
IST-MEL1 = tested on: IST-MEL1
LB2518-MEL = tested on: LB2518-MEL
LOXIMVI = tested on: LOXIMVI
MEL-HO = tested on: MEL-HO
MZ2-MEL = tested on: MZ2-MEL
MeWo = tested on: MeWo
RPMI7951 = tested on: RPMI7951
RVH-421 = tested on: RVH-421
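Note: cells treated in 1,536-well plates, then fixed and DAPI-stained, with nuclei counted from automated high-throughput microscope images.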

Row | SMILES | cell count (G361) | cell count (IPC-298) | cell count (IST-MEL1) | cell count (LB2518-MEL) | cell count (LOXIMVI) | cell count (MEL-HO) | cell count (MZ2-MEL) | cell count (MeWo) | cell count (RPMI7951) | cell count (RVH-421)
1 | O=C(O)c1ccc(-c2c[nH]c3ncc(-c4ccccc4)cc23)cc1C1CCCC1 + Oc1nc(-c2ccc(C(F)(F)F)cc2)nc2c1CSCC2 [XAV939] (first compound 0.8 µM, partner dose 10 µM) | 70.9% | 78.8% | 93.2% | 97.8% | 93.1% | 80.5% | 79.5% | 83.2% | 62.3% | 77.6%
2 | O=c1[nH]nc(Sc2ncc([N+](=O)[O-])s2)n1-c1ccc2c(c1)OCCO2 + O=S(=O)(c1ccccc1)N(CC(F)(F)F)c1ccc(C(O)(C(F)(F)F)C(F)(F)F)cc1 [T0901317] (first compound 1 µM, partner dose 7 µM) | 90.5% | 86.7% | 103% | 90.3% | 97.7% | 88.2% | 98.2% | 87.5% | 97.1% | 213%
3 | COc1cc(Nc2ncc(F)c(Nc3ccc4c(n3)NC(=O)C(C)(C)O4)n2)cc(OC)c1OC [Tamatinib] + N#Cc1c(O)c2c(-c3ccc(-c4ccccc4O)cc3)csc2[nH]c1=O [A769662] (first compound 2 µM, partner dose 10 µM) | 72.6% | 73% | 64.6% | 78.7% | 39.8% | 69.7% | 71.8% | 67.5% | 33.2% | 79.3%
4 | CC1(C)NC(=O)N(c2ccc([N+](=O)[O-])c(C(F)(F)F)c2)C1=O [nilutamide] + O=C(Nc1ccccc1)c1cc([N+](=O)[O-])ccc1Cl [GW9662] (first compound 5 µM, partner dose 10 µM) | 89.3% | 104% | 84.3% | 66.4% | 79.4% | 89.3% | 75% | 85.8% | 89.8% | 75.5%
5 | O=c1[nH]nc(Sc2ncc([N+](=O)[O-])s2)n1-c1ccc2c(c1)OCCO2 + COC(=O)c1sccc1S(=O)(=O)Nc1ccc(Nc2ccccc2)cc1OC [GSK0660] (first compound 1 µM, partner dose 5 µM) | 97.4% | 80.5% | 116% | 118% | 93.9% | 110% | 79.2% | 95.2% | 103% | 100%
6 | O=c1[nH]nc(Sc2ncc([N+](=O)[O-])s2)n1-c1ccc2c(c1)OCCO2 + Cc1ccc(NC(=O)c2cccc(N(C)C)c2)cc1NC(=O)c1ccc(O)cc1 [ZM336372] (first compound 1 µM, partner dose 10 µM) | 99.7% | 124% | 96.5% | 82.8% | 115% | 115% | 106% | 91.7% | 68.1% | 97.6%
7 | O=C(Nc1cccc(Cl)c1)Nc1ncc(CCNc2ncnc3ccsc23)s1 + CN(C)S(=O)(=O)c1ccc2c(c1)/C(=C/c1cc3c([nH]1)CCCC3)C(=O)N2 [SU6656] (first compound 0.004 µM, partner dose 2 µM) | 47% | 43.8% | 39.5% | 74% | 77.4% | 70.9% | 65.7% | 52.3% | 70.4% | 71.6%
8 | CC1(C)NC(=O)N(c2ccc([N+](=O)[O-])c(C(F)(F)F)c2)C1=O [nilutamide] + Cc1cc([N+](=O)[O-])ccc1NS(=O)(=O)c1cc(Cl)ccc1Cl [FH535] (first compound 5 µM, partner dose 5 µM) | 49.7% | 47.9% | 56.1% | 83.4% | 68.6% | 51.4% | 67.9% | 79.3% | 91.9% | 70.3%
9 | COc1cc(Nc2ncc(F)c(Nc3ccc4c(n3)NC(=O)C(C)(C)O4)n2)cc(OC)c1OC [Tamatinib] + Oc1nc(-c2ccc(C(F)(F)F)cc2)nc2c1CSCC2 [XAV939] (first compound 2 µM, partner dose 10 µM) | 67.5% | 83.9% | 72.1% | 77.9% | 42.5% | 71.2% | 71.5% | 75.1% | 48.1% | 88.6%
10 | O=C(O)c1ccc(-c2c[nH]c3ncc(-c4ccccc4)cc23)cc1C1CCCC1 + COc1cc2ncnc(Nc3ccc(Oc4ccccc4)cc3)c2cc1OC [SrcI1] (first compound 0.8 µM, partner dose 10 µM) | 57% | 67% | 78.6% | 111% | 73.5% | 69% | 75.3% | 65.7% | 50.1% | 85.4%
11 | CC1(C)NC(=O)N(c2ccc([N+](=O)[O-])c(C(F)(F)F)c2)C1=O [nilutamide] + Cc1ccc(NC(=O)c2cccc(N(C)C)c2)cc1NC(=O)c1ccc(O)cc1 [ZM336372] (first compound 5 µM, partner dose 10 µM) | 87.7% | 97.1% | 80.2% | 99.5% | 103% | 93.7% | 90.1% | 84.8% | 67% | 94.2%
12 | O=c1[nH]nc(Sc2ncc([N+](=O)[O-])s2)n1-c1ccc2c(c1)OCCO2 + OCCn1cc(-c2cnc3nnn(Cc4ccc5ncccc5c4)c3n2)cn1 [PF04217903] (first compound 1 µM, partner dose 5 µM) | 75.7% | 100% | 95.5% | 84.8% | 94.6% | 98% | 121% | 93.4% | 106% | 99.8%
13 | CC1(C)NC(=O)N(c2ccc([N+](=O)[O-])c(C(F)(F)F)c2)C1=O [nilutamide] + CC(C)CCN1c2nc(Nc3cc(F)c(O)c(F)c3)ncc2N(C)C(=O)C1C [BID1870] (first compound 5 µM, partner dose 1 µM) | 57.9% | 72.2% | 89.8% | 124% | 83.3% | 80.6% | 105% | 69.1% | 89.6% | 70.9%
14 | O=c1[nH]nc(Sc2ncc([N+](=O)[O-])s2)n1-c1ccc2c(c1)OCCO2 + O=C(Nc1cccc(Cl)c1)Nc1ncc(CCNc2ncnc3ccsc23)s1 [SNS314] (first compound 1 µM, partner dose 0.004 µM) | 64.4% | 102% | 63.2% | 80% | 81.4% | 80.4% | 105% | 72.9% | 46.5% | 74.4%
15 | O=c1[nH]nc(Sc2ncc([N+](=O)[O-])s2)n1-c1ccc2c(c1)OCCO2 + Nc1cccc2c1CN(C1CCC(=O)NC1=O)C2=O [lenalidomide] (first compound 1 µM, partner dose 5 µM) | 86.7% | 106% | 111% | 106% | 95.4% | 107% | 101% | 115% | 84.2% | 119%
16 | Cn1cncc1[C@@](N)(c1ccc(Cl)cc1)c1ccc2c(c1)c(-c1cccc(Cl)c1)cc(=O)n2C [tipifarnib] + O=S(=O)(c1ccccc1)N(CC(F)(F)F)c1ccc(C(O)(C(F)(F)F)C(F)(F)F)cc1 [T0901317] (first compound 0.05 µM, partner dose 7 µM) | 75.1% | 72.7% | 107% | 69% | 103% | 85.9% | 92.1% | 78.8% | 79.7% | 23.1%
17 | CC1(C)NC(=O)N(c2ccc([N+](=O)[O-])c(C(F)(F)F)c2)C1=O [nilutamide] + O=C(O)C(=O)Nc1sc2c(c1C(=O)O)CCNC2 [TCS401] (first compound 5 µM, partner dose 8.33333 µM) | 89.7% | 96.7% | 91% | 104% | 104% | 104% | 99.6% | 112% | 118% | 96.2%
18 | CC1(C)NC(=O)N(c2ccc([N+](=O)[O-])c(C(F)(F)F)c2)C1=O [nilutamide] + COC(=O)c1sccc1S(=O)(=O)Nc1ccc(Nc2ccccc2)cc1OC [GSK0660] (first compound 5 µM, partner dose 5 µM) | 97.7% | 96.3% | 119% | 108% | 116% | 99.7% | 103% | 82.9% | 83.8% | 103%
19 | C[C@@H]1CCN(C(=O)CC#N)C[C@@H]1N(C)c1ncnc2[nH]ccc12 + Cn1cncc1[C@@](N)(c1ccc(Cl)cc1)c1ccc2c(c1)c(-c1cccc(Cl)c1)cc(=O)n2C [tipifarnib] (first compound 5 µM, partner dose 0.05 µM) | 96.5% | 98.1% | 96.4% | 77.3% | 81.9% | 99.9% | 115% | 95% | 85% | 85.9%
20 | O=C(Nc1cccc(Cl)c1)Nc1ncc(CCNc2ncnc3ccsc23)s1 + Cc1cc([N+](=O)[O-])ccc1NS(=O)(=O)c1cc(Cl)ccc1Cl [FH535] (first compound 0.004 µM, partner dose 5 µM) | 42.8% | 46.6% | 47% | 77.7% | 79.7% | 45.7% | 54.7% | 62.1% | 71.5% | 60.2%
21 | O=C(Nc1cccc(Cl)c1)Nc1ncc(CCNc2ncnc3ccsc23)s1 + O=C(Nc1ccccc1)c1cc([N+](=O)[O-])ccc1Cl [GW9662] (first compound 0.004 µM, partner dose 10 µM) | 49.5% | 65.8% | 48.5% | 81.8% | 84% | 64.9% | 48.8% | 52% | 45.3% | 65.8%
22 | O=c1[nH]nc(Sc2ncc([N+](=O)[O-])s2)n1-c1ccc2c(c1)OCCO2 + COc1ccc(Cl)c(Nc2nc3ccccc3nc2NS(=O)(=O)c2cccc(NC(=O)C(C)(C)N)c2)c1 [XL147] (first compound 1 µM, partner dose 4 µM) | 87.4% | 75.3% | 64.4% | 77.2% | 104% | 82.9% | 80.6% | 91.5% | 83.9% | 106%
23 | Cn1cncc1[C@@](N)(c1ccc(Cl)cc1)c1ccc2c(c1)c(-c1cccc(Cl)c1)cc(=O)n2C [tipifarnib] + c1cc(-c2cnn3cc(-c4ccc(OCCN5CCCCC5)cc4)cnc23)ccn1 [Dorsomorphin] (first compound 0.05 µM, partner dose 2 µM) | 53.9% | 79.3% | 91% | 75% | 237% | 87.8% | 74% | 59.8% | 67.2% | 68.3%
